Measured values reported in article PMC4336329 (PLoS ONE, 2015).
Hit rate of the full screen: of about 310,000 compounds, about 14,000 (4.5%) showed an effect of 50% or more. Effects have a minus sign here. This is one part of the list.

target: human ether-à-go-go-related gene (hERG) potassium channel (human, UniProt Q12809); experiment: primary screen, population patch clamp on CHO cells stably expressing hERG
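Further: peak tail current of the secondary pulse compared with the same well before compound.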

Chain of human ether-à-go-go-related gene (hERG) potassium channel (Q12809 whole entry, looked up): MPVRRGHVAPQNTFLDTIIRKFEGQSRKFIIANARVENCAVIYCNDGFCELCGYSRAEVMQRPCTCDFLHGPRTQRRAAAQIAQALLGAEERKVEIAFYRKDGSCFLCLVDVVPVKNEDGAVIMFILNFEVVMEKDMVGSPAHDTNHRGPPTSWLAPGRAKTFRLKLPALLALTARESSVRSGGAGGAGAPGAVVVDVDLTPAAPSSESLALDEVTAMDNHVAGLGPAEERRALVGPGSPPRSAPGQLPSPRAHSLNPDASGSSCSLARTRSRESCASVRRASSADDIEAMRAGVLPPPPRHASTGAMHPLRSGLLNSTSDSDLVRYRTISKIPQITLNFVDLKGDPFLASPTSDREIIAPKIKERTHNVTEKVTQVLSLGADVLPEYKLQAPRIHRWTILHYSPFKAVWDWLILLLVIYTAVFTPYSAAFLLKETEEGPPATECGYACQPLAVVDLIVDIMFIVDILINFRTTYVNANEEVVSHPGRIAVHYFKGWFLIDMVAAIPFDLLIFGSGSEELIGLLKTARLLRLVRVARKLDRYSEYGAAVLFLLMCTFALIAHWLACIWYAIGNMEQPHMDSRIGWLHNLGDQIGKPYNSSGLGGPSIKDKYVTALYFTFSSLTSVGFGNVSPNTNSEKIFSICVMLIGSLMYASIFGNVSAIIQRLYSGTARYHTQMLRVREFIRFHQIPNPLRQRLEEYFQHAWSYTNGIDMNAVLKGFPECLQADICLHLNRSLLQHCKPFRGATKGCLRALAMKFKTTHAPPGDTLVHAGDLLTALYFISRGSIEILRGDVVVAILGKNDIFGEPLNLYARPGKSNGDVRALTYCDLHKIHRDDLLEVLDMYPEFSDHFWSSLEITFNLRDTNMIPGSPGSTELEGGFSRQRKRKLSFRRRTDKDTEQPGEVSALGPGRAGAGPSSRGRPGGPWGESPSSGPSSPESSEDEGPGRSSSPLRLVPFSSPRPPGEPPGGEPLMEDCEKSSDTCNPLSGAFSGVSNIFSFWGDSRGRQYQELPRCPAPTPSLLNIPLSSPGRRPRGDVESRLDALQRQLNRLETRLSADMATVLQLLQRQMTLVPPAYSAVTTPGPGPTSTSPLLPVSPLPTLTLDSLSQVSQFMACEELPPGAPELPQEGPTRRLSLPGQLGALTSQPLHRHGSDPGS

Point of comparison: `O=C(NCc1cccnc1)C12CC3CC(CC(C3)C1)C2`, “hERG current change (%, negative = inhibition) at 10uM” value -2.26%. Against it:
- Cc1nn(C)cc1S(=O)(=O)Nc1ccc(C(F)(F)F)cc1 — higher, 10.1%
- Cc1[nH][nH]c(=O)c1C(c1ccc(F)cc1)c1c(C)[nH][nH]c1=O — higher, 13.2%
- COC(=O)CSc1ncnc2c1cnn2Cc1ccccc1 — higher, 0.137%
- Cc1cc(C2CCCCC2)n(O)c(=O)c1.NCCO — higher, 7.99%
- S=C(Nc1ccccc1)N1N=C(c2cccs2)CC1c1cccs1 (stereo not drawn) — higher, 25.4%
- O=C(NC1CCN(S(=O)(=O)c2ccc(Cl)cc2)CC1)c1cccnc1 — higher, 0.584%
- CCOc1ccc(NC(=O)CN(c2ccc([N+](=O)[O-])cc2)S(=O)(=O)c2ccccc2)cc1 — higher, 0.773%
- Cn1c(CCN2CCN(c3ccccn3)CC2)nc2cc(NS(=O)(=O)c3ccc(Cl)cc3)ccc21 — lower, -84.3%
- COc1ccc(CCNC(=O)COC(=O)/C=C/c2ccc(OCC#N)c(OC)c2)cc1OC — lower, -17.1%
- O=C1NC(c2ccncc2)Nc2sc3c(c21)CCCC3 (stereo not drawn) — higher, 6.31%
- CCc1ccc(NC(=O)c2cccc(C(=O)Nc3ccc(CC)cc3)n2)cc1 — higher, 5.34%
- Cc1nnc(SCC(=O)c2cc(C)n(-c3c(C)n(C)n(-c4ccccc4)c3=O)c2C)s1 — higher, 1.03%
- Cc1cc(NC(=O)Cn2nnc(-c3ccccc3N)n2)no1 — higher, 11.8%
- CCCC(C(=O)O)N1C(=O)/C(=C/c2cccn2C)SC1=S (stereo not drawn) — higher, 24.8%
- Cc1ccc(NC(=O)Cc2nc(CSc3nnc(-c4ccc5c(c4)OCO5)o3)cs2)cc1 — lower, -6.08%
- CC1Cc2ccccc2N1NC(=O)c1ccc(Cl)c(S(N)(=O)=O)c1 (stereo not drawn) — higher, 8.16%
- CCOc1ccc2[nH]cc(C(=O)NCc3ccc(F)cc3)c(=O)c2c1 — higher, 16.8%
- CC(=O)c1c(C)n(CCO)c2ccc(O)cc12 — lower, -6.47%
- O=C(COC(=O)c1cccc2ccccc12)Nc1cccnc1Cl — higher, 0.703%
- CC1(C(=O)NC2CCCCC2)CCC(=O)N1Cc1cccs1 (stereo not drawn) — higher, -0.227%
- NS(=O)(=O)c1ccc(Cc2ncc(C(F)(F)F)cc2Cl)s1 — higher, 11.2%
- CCOC(=O)C1(CC)CC(CSc2nc3ccccc3[nH]2)OC1=O.Cl (stereo not drawn) — lower, -2.61%
- COc1cccc(CN2CCN(Cc3ccc4c(c3)OCCO4)CC2CCO)c1 (stereo not drawn) — lower, -7.1%
- CCc1ccc(C(C)NC(=O)/C=C/c2ccc(Br)cc2)cc1 (stereo not drawn) — lower, -22.4%
- Cc1ccc(-n2nc3ccc(NC(=O)c4ccc5c(c4)OCO5)cc3n2)cc1 — higher, 7.8%
- COC(C(=O)Nc1ccc(S(=O)(=O)Nc2ccc(C)c(C)c2)cc1)c1ccccc1 (stereo not drawn) — higher, 15.3%
- Cc1cc(NC(=O)c2ccco2)no1 — higher, 14.9%
- COc1ccc(-c2noc(CCC(=O)Nc3cccnc3)n2)cc1 — higher, 14.2%
- CCOC(=O)CC1(NC(=O)C2CCC(=O)N(CCc3ccc(OC)cc3)C2)CCCCC1 (stereo not drawn) — lower, -17%
- Cc1cc(C)n(-c2ncc3c(n2)N(CCO)CCOC3=O)n1 — higher, 15.2%
- O=C(NNS(=O)(=O)c1ccccc1)c1sccc1-n1cccc1 — higher, -0.398%
- CC(C)(C)OC(=O)N1CCNc2ccccc2C1 — higher, 0.368%
- O=C(Nc1cccc(C(F)(F)F)c1)c1ccco1 — lower, -16.2%
- O=C(Nc1cccnc1)Nc1ccc2c(c1)OCO2 — lower, -20.3%
- O=C(NCCCCNC(=O)C1CCCC1)C1CCCC1 — lower, -15.8%
- COC(=O)c1cc(C#N)c(Oc2cccc(C)c2C)nc1C — higher, 18.5%
- Cc1nn(Cc2ccccc2Cl)c(C)c1C(=O)N(C)CC(=O)Nc1cccc(F)c1 — lower, -22%
- Cc1cc(Nc2ccc([N+](=O)[O-])cc2)c2ccccc2n1 — lower, -20%
- COc1ccc(C2CC(=O)C(C=NCCN3CCN(C(C)=O)CC3)=C(O)C2)cc1 (stereo not drawn) — higher, -1.68%
- Cc1ccccc1-c1cc(C(=O)NCc2cccs2)n(CC2CC(c3cccnc3)=NO2)n1 (stereo not drawn) — lower, -26.2%
- [Cl-].c1ccc(Cn2c[n+](Cc3ccccc3)c3ccccc32)cc1 — lower, -9.12%
- Cc1ccc(NC(=O)c2cccc(Cl)c2)nc1 — lower, -2.89%
- Cc1cc(C(=O)CSc2nnnn2-c2ccc(Cl)cc2)c(C)n1CC1CCCO1 (stereo not drawn) — higher, 0.173%
- Nc1nnc(C2CCCC2)s1 — higher, 4.17%
- CC1NC(=O)NC1CCCCCC(=O)Nc1ccc(F)c(Cl)c1 (stereo not drawn) — lower, -27.2%
- CCCN1C2CCCC1CC(NC(=S)NCCCOCC)C2 (stereo not drawn) — higher, 3.1%
- CC1(C)CC(=O)c2cc(C(=O)NCc3ccco3)c(=O)n(-c3ccccc3)c2C1 — lower, -19.7%
- Cc1cccc(C)c1NC(=O)COC(=O)COc1ccc2c(C)cc(=O)oc2c1 — higher, 6.65%
- Cc1cc(C)c2cc(C(=O)N(C)C3CCN(C)CC3)[nH]c2c1 — higher, 5.88%
- O=C(N/C=N/O)C1=NOC(CNc2ncc(C(F)(F)F)cc2Cl)C1 (stereo not drawn) — lower, -18.7%
- Cc1occc1-c1nnc(SCC(=O)Nc2nccs2)n1Cc1ccco1 — lower, -75.4%
- Cc1ccc2[nH]c(=O)c(CN(Cc3cccs3)Cc3nnnn3Cc3ccccc3)cc2c1 — lower, -6.86%
- CCN(CC)S(=O)(=O)c1ccc(N2CCN(CCO)CC2)nc1 — lower, -3.97%
- O=C(c1ccc(-c2nnc(Nc3ccccc3)c3ccccc23)cc1)N1C[C@H]2C[C@H](C1)c1cccc(=O)n1C2 — lower, -10.9%
- CCC(C)(C(=O)NC1CCCC1)N(C)C(=O)c1ccccn1 (stereo not drawn) — higher, 1.46%
- CC(=O)Nc1ccc(NC(=O)c2ccc(NS(=O)(=O)c3cc(C(C)(C)C)ccc3C)cc2)cc1 — higher, 12.1%
